Assays:
human CD200R1 [1] = biological target: T1, human CD200R1 (Homo sapiens, UniProt Q8TD46); assay: SPR binding kinetics, human CD200R1; settings: hCD200R1-his captured on anti-His CM5 chip, 1:1 Langmuir fit
T1 sequence (Q8TD46 25-348): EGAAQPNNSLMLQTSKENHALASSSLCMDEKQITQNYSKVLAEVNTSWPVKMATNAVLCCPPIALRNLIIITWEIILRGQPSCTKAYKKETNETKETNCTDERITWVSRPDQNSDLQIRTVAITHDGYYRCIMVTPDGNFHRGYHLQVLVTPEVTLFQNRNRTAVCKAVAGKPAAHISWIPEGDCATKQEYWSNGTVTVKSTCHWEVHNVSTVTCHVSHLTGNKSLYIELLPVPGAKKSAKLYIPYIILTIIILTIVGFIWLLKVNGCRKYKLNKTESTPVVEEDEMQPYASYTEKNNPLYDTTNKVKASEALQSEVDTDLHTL
Protocol: (§1) The CD200R1-specific binding ability of the antibodies (P001009 wt, P001009 v1, P001009 v2, P001009 v3, P001009 v4) selected in Example 14 was analyzed using surface plasma resonance (SPR). For the experiment, 30 μg/mL of an anti-histidine antibody was conjugated to a CM5 biacore chip via an amine bond while allowing to flow at 10 μl/min (10,000 RU). Then, 0.25 μg/mL of human or cynomolgus CD200R1 with dual His-tags was captured onto the completed chip for 60 seconds, and the binding ability of each antibody was analyzed. All experiments were performed by association of antibodies for 120 seconds and dissociation of antibodies for 600 seconds. The resulting graphs were fitted using a 1:1 Langmuir binding kinetic model (FIG. 16), and the kinetics of each antibody were calculated.

human CD200R1 [2] = biological target: T1, human CD200R1; assay: ELISA binding to human CD200R1; settings: Example 14
Protocol: 96-well plates were coated with human CD200R1 (R&D systems, 3414-CD) and mouse CD200R1 protein (R&D systems, 2554-CD) at a concentration of 2 μg/mL at 4° C. for 16 hours and then were blocked with 3% skim milk. The result was treated with the antibodies at concentrations of 300 nM, 60 nM, 12 nM, 2.4 nM, 0.48 nM, 0.096 nM, and 0.0192 nM, and reacted at room temperature for 2 hours.
The result was washed with PBST and distilled water, the samples were bound with a goat-derived HRP-conjugated anti-human antibody (Invitrogen, 31482, Goat anti-Human IgG F(ab′)2 Secondary Antibody, HRP) for 1 hour at room temperature, and then washed again with PBST and distilled water. Color was developed with a TMB substrate solution (Thermo Scientific, 34029, 1-Step™ TMB-ELISA Ultra Substrate Solution). The color reaction was stopped with stop solution (Invitrogen, SS04, ELISA Stop Solution). The absorbance was measured at an optical density of 450 nm.

monkey CD200R1 = assay: ELISA binding to monkey CD200R1; settings: Example 14
From the text: Therefore, the LC D51 and LC D92 sequences were not substituted during the optimization process. However, since LC N30 and LC N31 can play an important role in the specific binding of antibodies as paratopes, the sequences were substituted and optimized. Through rational design, LC S52 and LC S94 were substituted with K and R, respectively, to derive P001009v1, and LC S52 and LC D93 were substituted with K and R, respectively, to derive P001009v2. Further, P001009v3, in which LC N30 was substituted with S, and P001009v4, in which LC N31 was substituted with K, were derived and produced, and the binding ability to human, mouse, and monkey CD200R1 was analyzed by ELISA (FIG. 15). […] Both […] and variants thereof had very weak binding ability to mouse CD200R1 at concentrations up to 300 nM.

cynomolgus CD200R1 = assay: SPR binding kinetics, cynomolgus CD200R1; settings: cynomolgus CD200R1-his captured on anti-His CM5 chip, 1:1 Langmuir fit
Protocol: as §1

binding ability to monkey CD200R1 compared to parent (monkey CD200R1): improved | Ka (cynomolgus CD200R1): 6.14e+09 M⁻¹ s⁻¹
B1: P001009v3: P001009 variant, LC N30 substituted with S; VH SEQ ID NO: 79 (antibody, V domains shown)
VH: EVQLLESGGGLVQPGGSLRLSCAASGFTFSSYDMSWVRQAPGKGLEWVSWISHGGGSIYYADSVKGRFTISRDNSKNTLYLQMNSLRAEDTAVYYCARDAPAYSAPLFDYWGQGTLVTVSS
VL: QSVLTQPPSASGTPGQRVTISCSGSSSNIGSNAVNWYQQLPGTAPKLLIYYDSNRPSGVPDRFSGSKSGTSASLAISGLRSEDEADYYCAAWDDSLSGYVFGGGTKLTVL
Ka (human CD200R1 [1]): 4.16e+06 M⁻¹ s⁻¹ | binding ability to human CD200R1 compared to parent (human CD200R1 [2]): reduced

Reference: patent publication US20260263521A1, “ANTI-CD200R1 ANTIBODY AND USE THEREOF” (AIMED BIO INC., priority 2023, published 2026)
